The Kd is the free concentration of one partner at which half of the binding sites on the other are occupied at equilibrium, for simple one-to-one binding. The koff is the first-order rate constant of dissociation. As usually defined, the kon is a measure of how fast the partners come together. A word on the EC50: it is the midpoint of the concentration-response curve.

T1: human CD22-ECD-His (human, UniProt P20273 20-687)
T1 construct: Made in HEK293E, purified on nickel column; also called hCD22-ECD-His; recombinant human CD22-ECD His; not shown: His tag
T1 sequence: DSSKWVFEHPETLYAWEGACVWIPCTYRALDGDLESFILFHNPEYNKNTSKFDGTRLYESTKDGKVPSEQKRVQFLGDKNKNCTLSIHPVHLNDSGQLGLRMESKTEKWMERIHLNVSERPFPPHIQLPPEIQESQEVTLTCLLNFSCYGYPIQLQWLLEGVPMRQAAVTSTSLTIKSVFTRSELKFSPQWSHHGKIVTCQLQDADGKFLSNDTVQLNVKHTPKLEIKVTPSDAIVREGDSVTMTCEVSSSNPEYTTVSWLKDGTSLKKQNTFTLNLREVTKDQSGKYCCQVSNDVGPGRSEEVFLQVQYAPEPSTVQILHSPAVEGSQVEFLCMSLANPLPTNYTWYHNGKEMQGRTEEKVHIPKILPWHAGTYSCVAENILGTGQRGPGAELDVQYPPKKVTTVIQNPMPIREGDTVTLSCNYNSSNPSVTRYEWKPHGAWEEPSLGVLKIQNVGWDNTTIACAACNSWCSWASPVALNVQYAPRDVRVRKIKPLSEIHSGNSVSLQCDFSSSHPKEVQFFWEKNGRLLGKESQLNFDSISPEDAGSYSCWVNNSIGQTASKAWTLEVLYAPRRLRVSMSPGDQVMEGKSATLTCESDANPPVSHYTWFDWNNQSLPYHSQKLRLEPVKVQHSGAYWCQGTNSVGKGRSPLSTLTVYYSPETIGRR

T2: human CD22 (full length, on cells) (human, UniProt P20273 20-847)
T2 construct: Raji cells carry endogenous human CD22; also called CHO-K1-human CD22 2C4; CHO-K1-human CD22 1G5
T2 sequence: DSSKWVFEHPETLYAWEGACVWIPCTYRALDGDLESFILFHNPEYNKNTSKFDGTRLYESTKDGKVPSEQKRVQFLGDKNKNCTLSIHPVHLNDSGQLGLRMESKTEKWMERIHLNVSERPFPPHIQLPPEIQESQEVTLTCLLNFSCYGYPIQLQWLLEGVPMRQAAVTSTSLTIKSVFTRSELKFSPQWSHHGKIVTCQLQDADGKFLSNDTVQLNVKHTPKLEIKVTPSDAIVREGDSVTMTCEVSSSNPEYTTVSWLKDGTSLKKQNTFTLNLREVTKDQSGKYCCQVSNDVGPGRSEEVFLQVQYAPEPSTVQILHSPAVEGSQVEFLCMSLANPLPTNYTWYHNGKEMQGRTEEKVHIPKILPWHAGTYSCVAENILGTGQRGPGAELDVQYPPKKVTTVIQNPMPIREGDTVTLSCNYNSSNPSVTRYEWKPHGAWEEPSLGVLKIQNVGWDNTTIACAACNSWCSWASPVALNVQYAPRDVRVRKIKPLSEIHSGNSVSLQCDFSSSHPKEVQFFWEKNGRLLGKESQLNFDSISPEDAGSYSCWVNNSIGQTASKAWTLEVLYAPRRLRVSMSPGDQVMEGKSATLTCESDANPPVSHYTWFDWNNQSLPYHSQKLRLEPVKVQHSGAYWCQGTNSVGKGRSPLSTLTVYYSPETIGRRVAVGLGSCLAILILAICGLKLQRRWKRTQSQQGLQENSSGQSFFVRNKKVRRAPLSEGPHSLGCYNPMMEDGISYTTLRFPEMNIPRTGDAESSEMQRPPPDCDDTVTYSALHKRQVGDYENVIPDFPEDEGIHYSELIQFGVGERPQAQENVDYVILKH

B1: S002-NB150-5 VHH-Fc (Fc fusion)
chain: QLQLVESGGGLVQAGGSLRLSCVGSGDRVSIALMGWFRQAPGKEREFVAAISPSGGRITYSDSVKGRFTISRDNAKNTVYLQMNSLKRDDTAVYVCAANFRGYLSSSRGSDYAYWGQGTQVTVSS[human IgG1 Fc with changes cut from this listing]
notes: VHH cloned into vector BI3.4-huIgG1 (hinge and human IgG1 Fc), made in HEK293E; also called 5002-NB150-5
B2: S002-NB150-57 VHH-Fc (Fc fusion)
chain: QVQLVESGGGLVQAGDSLRLSCAVTGRAYSRSDMGWFRQAPGKEREIVAVITFGGGTDYADSVKGRFTISSEDTKNTLYLQMNSLQPEDTAVYYCAAGFRGSRWSTAARRKEDDYAFWGQGTQVTVSS[human IgG1 Fc with changes cut from this listing]
notes: VHH cloned into vector BI3.4-huIgG1 (hinge and human IgG1 Fc), made in HEK293E; also called 5002-NB150-57
B3: S002-NB150-40 VHH-Fc (Fc fusion)
chain: QVQLVESGGGLVQDGGSLRLSCAASGLTFSFYNMGWFRQAPGKEREFVAAISQSGLSTHYADSMKGRFTISRDNAKNTVYLQMNSLNPVDTAAYYCAAGRRGYLASTTNDYEYWGQGTQVTVSS[human IgG1 Fc with changes cut from this listing]
notes: VHH cloned into vector BI3.4-huIgG1 (hinge and human IgG1 Fc), made in HEK293E; also called 5002-NB150-40
B4: S002-NB150-42 VHH-Fc (Fc fusion)
chain: QVQLVESGGGLVQAGDSLKLSCLASGITFSSYYMSWFRQAPGKEREFVAGVGRSGAPSHHADSVKGRFTISRDNAKSAVYLQMNSLQPEDTAVYFCAAKWMAASTTVADYWGQGTQVTVSS[human IgG1 Fc with changes cut from this listing]
notes: VHH cloned into vector BI3.4-huIgG1 (hinge and human IgG1 Fc), made in HEK293E; also called 5002-NB150-42
B5: S002-NB151-82 VHH-Fc (Fc fusion)
chain: EVQVVESGGGLVQAGDSLRLSCTTSGRTFYGDYIAWFRQAPGKEREFVAAIAVRGRGTFYGDSVKGRFTISRDNAENTLSLQMNSLKPEDTAVYYCAADAGSYASRGFPVRETGRYDYWGQGTQVTVSS[human IgG1 Fc with changes cut from this listing]
notes: VHH cloned into vector BI3.4-huIgG1 (hinge and human IgG1 Fc), made in HEK293E; also called 5002-NB151-82
B6: S002-NB151-36 VHH-Fc (Fc fusion)
chain: QVQLVESGGGLVQAGGSLRLSCAASGLTFSYYGMGWFRQAPGKEREFVAAINWSGTSTYYADSVKDRFTVSRDNAKNTAYLHMNNLKPEDTAVYYCAARKYSSSQAMGLPNDIDYWGQGTQVTVSS[human IgG1 Fc with changes cut from this listing]
notes: VHH cloned into vector BI3.4-huIgG1 (hinge and human IgG1 Fc), made in HEK293E; also called 5002-NB151-36
B7: S002-NB151-64 VHH-Fc (Fc fusion)
chain: QVQLVESGGGLVQPGGSLTLSCAASGFDFSFYTMTWVRQAQGKGLEWVSTISTGGGGSNYADSVKGRFTISRDNAKKTLYLQMTSLKPEDTAVYYCASHRRGYMFVSSRKNEYDYWGRGTQVTVSS[human IgG1 Fc with changes cut from this listing]
notes: VHH cloned into vector BI3.4-huIgG1 (hinge and human IgG1 Fc), made in HEK293E; also called 5002-NB151-64
B8: S002-NB150-2 VHH-Fc (Fc fusion)
chain: QVQLVESGGGLVQPGGSLRLSCAASGSWFNIAMGWFRQAPGKEREFVAGIRWSDSKTYYADSVKGRFTISGDNAKNTTYLQMNSLKPEDTAVYYCAAQRYYRGSYNRQTNYDHWGQGTQVTVSS[human IgG1 Fc with changes cut from this listing]
notes: VHH cloned into vector BI3.4-huIgG1 (hinge and human IgG1 Fc), made in HEK293E; also called 5002-NB150-2

The target in one test is T3, cynomolgus monkey CD22 on peripheral blood B cells (cynomolgus monkey (Macaca fascicularis)).
T3 construct: whole, on cells; also called cynomolgus monkey B cells
In words: FACS, cynomolgus PBMC, CD20+ B cells, antibody 10 nM. Here is the method:
(§1) After the cell suspension was centrifuged, the cells were resuspended in PBS containing 1% BSA, and then the cells were counted. […] After washing the cells three times, APC-labeled secondary antibody anti-human IgG Fc (catalog number: 409306, purchased from Biolegend) was added. After incubation at room temperature in the dark for 30 minutes, the cells were washed 5 times, gently resuspended with PBS containing 1% BSA, and detected and analyzed by FACS (FACS Canto™, purchased from BD Company).
(In general: Flow cytometry measures light scatter and fluorescence of single cells or particles in a stream.)
With B1, the “Proportion of VHH-Fc antibody positive cells to B cells (%)” value (“Proportion … (%)” below) is 3%.
As to B2, the “Proportion … (%)” value worked out at 16%.
Still for that read-out and setting: under B3 stands 0%.
Same read-out and setting: the same measure for B4: 36%.
Same read-out and setting: the same measure for B5: 2%.
Turning to B6, the “Proportion … (%)” value amounted to 10%.
As to B7, the “Proportion … (%)” value turned out to be 4%.
The same measure, in the same setting: under B8 stands 80%.

In the next test the target is T1, human CD22-ECD-His. In words: SPR (Biacore), antibody captured on Protein A, hCD22-ECD-His analyte. Here is the method: Sample buffer and running buffer were HBS-EP+(10 mM HEPES, 150 mM NaCl, 3 mM EDTA, 0.05% surfactant P20) (GE Healthcare; BR-1006-69). The flow-through cell was set to 25° C. The sample block was set to 16° C. Both were pretreated with the running buffer. In each cycle, the antibody to be tested was first captured with a Protein A chip, then a single concentration of CD22 antigen protein was injected. The binding and dissociation process of the antibody and the antigen protein was recorded, and finally Glycine pH 1.5 (GE Healthcare; BR-1003-54) was used to complete chip regeneration. […] The concentration started from 200 nM (see the detailed results for the actual concentration in the test) and was diluted at 1:1, making a total of 5 concentrations. The dissociation phase was monitored for up to 600 s and was triggered by switching from sample solution to running buffer. The surface was regenerated by washing with a 10 mM of glycine solution (pH 1.5) for 30 s at a flow rate of 30 μL/min. Bulk refractive index difference was corrected by subtracting the response obtained from the goat anti-human Fc surface. Blank injection was also subtracted (=double reference). For calculation of apparent KD and other kinetic parameters, Langmuir 1:1 model was used.
On to B1, for which the Kd is 3.71 nM, the koff worked out at 0.000309 s⁻¹ and the kon came to 83200 M⁻¹ s⁻¹.
For B2, in that order: 3.7 nM, 0.000407 s⁻¹ and 110000 M⁻¹ s⁻¹.
For B3, in that order: 6.27 nM, 0.000541 s⁻¹ and 86300 M⁻¹ s⁻¹.
The corresponding values for B4 are 2.16 nM, 0.000423 s⁻¹ and 196000 M⁻¹ s⁻¹.
In turn, B5 showed a Kd of 29 nM, a koff of 0.00174 s⁻¹ and a kon of 60000 M⁻¹ s⁻¹.
B6 displayed a Kd of 5.97 nM, a koff of 0.00052 s⁻¹ and a kon of 87300 M⁻¹ s⁻¹.
B7 gave a Kd of 8.68 nM, a koff of 0.00207 s⁻¹ and a kon of 239000 M⁻¹ s⁻¹.
The corresponding values for B8 are 2.4 nM, 7.61e-05 s⁻¹ and 31700 M⁻¹ s⁻¹.

For another test, the target named is T3, cynomolgus monkey CD22 on peripheral …. The test is described as follows: FACS, cynomolgus PBMC, CD20+ B cells, antibody 100 nM. Here is the method: as §1
For B1, the “Proportion … (%)” value was 36%.
Still for that read-out and setting: under B2 stands 58%; under B3, 3%; under B4, 80%.
As to B5, the “Proportion … (%)” value is 2%.
Same read-out and setting: the same measure for B6: 40%; for B7: 19%; for B8: 89%.

The target of a further test is T2, human CD22 (full length, on cells). The test is described as follows: FACS, Raji cells. An excerpt:
The required cells were scale-up cultured in a T-75 cell culture flask to the logarithmic growth phase. For the adherent cell CHO-K1, the medium was aspirated, the cells were washed 2 times with PBS buffer, and then digested with trypsin. After the digestion was terminated, the cells were washed 2 times with PBS buffer. For suspension cell Raji, the medium supernatant was directly centrifuged and discarded, and the cell pellet was washed 2 times with PBS. […] The mixture was centrifuged and washed 3 times with PBS buffer, Alexa Flour 488-labeled secondary antibody (purchased from Invitrogen, catalog number: A-11013) was added at 50 μl/well, and incubated on ice for 1 hour. The obtained mixture was centrifuged and washed 5 times with PBS, and FACS (FACS Canto™, purchased from BD Company) was used for detection and result analysis. Data analysis was performed by software (CellQuest) to obtain the mean fluorescence density (MFI) of the cells. And then software (GraphPad Prism8) was used for analysis, data fitting, and EC50 value calculation.
Take B1: the midpoint of the response, the EC50, lay at 0.17 nM and the “Max MFI” value was determined as 4620.
For B2, in that order: 0.17 nM and 4660.
Regarding B3, the EC50 was found to be 0.36 nM and the “Max MFI” value stood at 4070.
For B4, in that order: 0.2 nM and 4460.
For B5, in that order: 0.31 nM and 2170.
As to B6, the EC50 was 0.41 nM and the “Max MFI” value turned out to be 4760.
As for B7, the EC50 came out at 0.26 nM and the “Max MFI” value turned out to be 4690.
Take B8: the EC50 amounted to 0.25 nM and the “Max MFI” value came to 4110.
